Assay results reported in the supplement of paper PMC10338343.
± gives the standard deviation. The list shows a part of the results, in another mix than the full data.

System: MIWI (PIWIL1) piRISC loaded with L1MC piRNA (30 nt)
Assay: pre-steady-state target cleavage rate (min^-1); MIWI and MILI are mouse PIWI proteins and EfPiwi is from a freshwater sponge; tags in brackets are library labels; higher = faster piRNA-guided slicing of the target
Conditions: guide: L1MC piRNA 5'p-UAACUAAAUACUAUGCAAGCUGUAGGUCCU; auxiliary factor: none (no GTSF1)
Summary of the method: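 For Cleave-'n-Seq, a transcribed, DNA-blocked target RNA library […] met 1 nM active affinity-purified piRISC with one synthetic guide at 33 °C for 0–8 or 0–960 min in HEPES–potassium acetate buffer, with or without 500 nM GTSF1 partner protein. Uncleaved targets were sequenced and normalised to depth and weakly complementary targets, with three trials pooled and k3 capped at 0.0001 min^-1. A burst-and-steady-state fit supplied the pre-steady-state cleavage rate.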
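Further: 1 nM active piRISC with 0.1 nM target library at 33 °C single turnover.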

Sequence | pre-steady-state target cleavage rate
UCCUGGAUGUCGUUGCAUAGUUUUUACUUA | < 0.0001
UCCUGGAUGUCGUUGGUAAGUAUUUAGUUA | < 0.0001
AGGAGGUACAGCUUGCAUAGUAUUUAGUUA | 0.0721 ± 0.011
